Test results as given in PMC5708675.
These are yes or no findings as the source states them, for the method shown. In cells and extracts the contact can be indirect. Some results given as binding are weak or reduced against the parent protein; the word gives no strength.

By UniProt entry, the sequences of proteins in these tests, tags left out.
UniProt P40763: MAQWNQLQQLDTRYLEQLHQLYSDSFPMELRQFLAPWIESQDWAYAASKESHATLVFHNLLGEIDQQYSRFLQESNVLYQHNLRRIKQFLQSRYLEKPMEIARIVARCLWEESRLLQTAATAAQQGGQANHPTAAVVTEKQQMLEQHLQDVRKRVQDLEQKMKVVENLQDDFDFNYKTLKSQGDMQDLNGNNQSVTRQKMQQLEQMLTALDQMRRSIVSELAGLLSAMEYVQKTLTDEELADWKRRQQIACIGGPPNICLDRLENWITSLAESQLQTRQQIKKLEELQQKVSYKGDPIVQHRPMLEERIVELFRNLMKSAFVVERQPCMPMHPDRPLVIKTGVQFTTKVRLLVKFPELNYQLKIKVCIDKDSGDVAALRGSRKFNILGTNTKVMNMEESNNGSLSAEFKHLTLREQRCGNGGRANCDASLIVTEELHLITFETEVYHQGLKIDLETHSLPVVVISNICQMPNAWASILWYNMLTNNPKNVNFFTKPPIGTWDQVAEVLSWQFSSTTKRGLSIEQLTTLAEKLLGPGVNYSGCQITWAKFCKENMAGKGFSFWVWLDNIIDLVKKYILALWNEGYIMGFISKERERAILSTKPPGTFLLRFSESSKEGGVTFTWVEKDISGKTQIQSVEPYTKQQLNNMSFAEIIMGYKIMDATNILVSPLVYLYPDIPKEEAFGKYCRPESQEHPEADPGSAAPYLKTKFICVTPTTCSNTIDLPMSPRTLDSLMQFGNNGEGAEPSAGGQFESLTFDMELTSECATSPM

Experiments:
[1] = molecular target: Signal transducer and activator of transcription 3 (Stat3) (human (endogenous in T24 cells and bladder tissue)) (UniProt P40763); assay: proximity ligation; Duolink in situ PLA on FFPE bladder cancer tissue sections with strong nuclear expression of Blcap and Stat3; rabbit anti-Blcap and mouse anti-Stat3 primary antibodies
[2] = molecular target: Signal transducer and activator of transcription 3 (Stat3) (human (endogenous in T24 cells and bladder tissue)) (UniProt P40763); assay: condition: only cytoplasmic fraction of IL-6 stimulated T24 cells; co-IP; cytoplasmic fraction (NE-PER kit) of IL-6 stimulated T24 cells; IP with anti-Stat3 antibody, immunoblot for Blcap
[3] = molecular target: Signal transducer and activator of transcription 3 (Stat3) (human (endogenous in T24 cells and bladder tissue)) (UniProt P40763); assay: condition: only in samples with cytoplasmic, but not nuclear, expression of Blcap; proximity ligation; Duolink in situ PLA on an FFPE bladder tissue section with cytoplasmic, but not nuclear, expression of Blcap
[4] = molecular target: Signal transducer and activator of transcription 3 (Stat3) (human (endogenous in T24 cells and bladder tissue)) (UniProt P40763); assay: co-IP; nuclear fraction (NE-PER kit) of IL-6 stimulated T24 cells; IP with anti-Stat3 antibody, immunoblot for Blcap
[5] = molecular target: Signal transducer and activator of transcription 3 (Stat3) (human (endogenous in T24 cells and bladder tissue)) (UniProt P40763); assay: co-IP; T24 cell lysates, cells stimulated or not with IL-6 (20 ng/ml, 6 h); IP with anti-Stat3 antibody on Protein G-Dynabeads, immunoblot for Blcap; lysis buffer 25 mM Tris, 150 mM NaCl, 1 mM EDTA, 1% NP-40, 5% glycerol, pH 7.4

B1: Bladder Cancer Associated Protein (Blcap) (protein, UniProt P62952 1-87)
chain: MYCLQWLLPVLLIPKPLNPALWFSHSMFMGFYLLSFLLERKPCTICALVFLAALFLICYSCWGNCFLYHCSDSPLPESAHDPGVVGT
Question: Which results are given for B1?
Answer: binding [1]: binds; binding [2]: no binding; binding [3]: no binding; binding [4]: binds; binding [5]: binds
